# Assay results: PubChem BioAssay (Tox21)
# Several values for one entry are separate records, joined by “and”; a condition that tells them apart may be missing. Equal entries are not always repeated. Inconclusive means that the source gave no clear call. Such entries were picked first, then a sample of the others. For some of these results: Where the call is inconclusive, the potency comes from a doubtful curve fit. A structure can be active in one record and inactive in another. Activity calls are given as the source filed them. Unless noted, calls follow the shape of the dose curve; as a rule, active = well fitted curve in the direction sought with a large enough effect in the repeat runs; inconclusive = weak or mixed curves; inactive = no such curve, though single readings can be large; an effect the other way counts as inactive or inconclusive.
# Tests used:
# [1] = target: Glucocorticoid receptor (Homo sapiens) (UniProt P04150); experiment: qHTS assay to identify small molecule antagonists of the glucocorticoid receptor (GR) signaling pathway (AID 720692; active = well fitted inhibition curve with a large enough effect in the signal ratio in the repeat runs, not every such curve was filed as active; inconclusive = weak or mixed curves, or effect the other way; inactive = no such curve, though single readings can be large or run the other way; the % refers to the signal ratio; also: % is scaled to controls: 0 for no effect and ±100 for the full control effect); settings: GR-bla HeLa, beta-lactamase FRET ratio, dexamethasone-stimulated, 18 h; activity change, negative = inhibition: at 58.5 µM (top of the series) unless noted
# Sequence of UniProt P04150 (P04150 whole entry, looked up): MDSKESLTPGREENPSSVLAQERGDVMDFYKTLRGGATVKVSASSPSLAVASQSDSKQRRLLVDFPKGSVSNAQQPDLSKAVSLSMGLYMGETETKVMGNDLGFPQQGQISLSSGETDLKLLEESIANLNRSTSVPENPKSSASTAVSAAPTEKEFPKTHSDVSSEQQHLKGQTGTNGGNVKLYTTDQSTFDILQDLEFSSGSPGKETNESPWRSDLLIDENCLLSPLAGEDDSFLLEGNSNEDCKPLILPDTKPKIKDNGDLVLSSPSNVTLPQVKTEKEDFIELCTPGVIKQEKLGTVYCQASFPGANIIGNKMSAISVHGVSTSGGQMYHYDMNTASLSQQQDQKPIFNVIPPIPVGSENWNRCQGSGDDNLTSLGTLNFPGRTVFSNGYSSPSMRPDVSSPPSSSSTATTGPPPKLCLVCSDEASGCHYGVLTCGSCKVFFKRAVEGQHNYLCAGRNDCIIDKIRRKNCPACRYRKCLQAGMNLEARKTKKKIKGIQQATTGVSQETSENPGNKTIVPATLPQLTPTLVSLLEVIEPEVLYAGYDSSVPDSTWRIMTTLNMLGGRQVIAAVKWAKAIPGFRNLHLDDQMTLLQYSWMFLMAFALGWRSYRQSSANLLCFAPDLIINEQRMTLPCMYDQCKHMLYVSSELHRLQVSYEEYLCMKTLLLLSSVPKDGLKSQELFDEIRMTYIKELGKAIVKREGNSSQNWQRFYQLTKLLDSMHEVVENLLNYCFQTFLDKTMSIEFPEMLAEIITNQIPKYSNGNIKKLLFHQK
# Outline: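 GR-bla HeLa cells (beta-lactamase reporter under glucocorticoid response element) were pre-plated 4 h at 37 C, treated with compounds plus 5 nM dexamethasone (final) for 18 h, then read by LiveBLAzer B/G FRET fluorescence after 2 h.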
# [2] = qHTS assay for small molecule agonists of the antioxidant response element (ARE) signaling pathway (AID 743202; active = well fitted activation curve with a large enough effect in the signal ratio in the repeat runs, not every such curve was filed as active; inconclusive = weak or mixed curves, or effect the other way; inactive = no such curve, though single readings can be large or run the other way; the % refers to the signal ratio; also: potency is read from the fitted curve at half-maximal effect; as to activation: % is scaled to controls: 0 for no effect and ±100 for the full control effect); settings: HepG2 ARE-bla reporter, beta-lactamase FRET, 16 h; activation: at 73.3 µM (top of the series) unless noted
# Outline: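 Agonist mode reporter screen: HepG2 cells with ARE-controlled beta-lactamase are incubated with test compounds for 16 h at 37 C, and beta-lactamase activity is measured as fluorescence of cleaved B/G FRET substrate.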
# [3] = target: Retinoic acid receptor RXR-alpha (Homo sapiens) (UniProt P19793); experiment: qHTS assay to identify small molecule agonists of the RXR signaling pathway (AID 1159527; calls by dose curve; also: nearly all actives have a fitted effect of over 35% in size; also: potency is read from the fitted curve at half-maximal effect); settings: HEK293T RXRa-UAS-bla, beta-lactamase ratio, 16 h; activation: at 76.8 µM (top of the series) unless noted
# Outline: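 Cells plated at 2,000/well, rested 5 hr at 37 C, pin-dosed with DMSO compound solutions, incubated 16 hr, then loaded with B/G FRET substrate for 2 hr at RT before dual-emission fluorescence reading.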
# [4] = qHTS assay to identify small molecule agonists of the retinoic acid receptor (RAR) signaling pathway (AID 1159553); settings: C3RL4 RARE luciferase reporter, agonist, 6 h; activation: at 73.3 µM (top of the series) unless noted; also: % is scaled to controls: 0 for no effect and ±100 for the full control effect
# Outline: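 C3RL4 cells carrying a RARE luciferase reporter were plated overnight at 37 C, then exposed to compounds in DMSO for 6 hr at 37 C and 5% CO2. Luminescence was read 30 min after luciferase reagent addition at room temperature.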
# [5] = target: Estrogen receptor beta (Homo sapiens) (UniProt Q92731); experiment: qHTS assay to identify small molecule antagonists of the estrogen receptor beta (ER-beta) signaling pathway (AID 1259378; active = well fitted inhibition curve with a large enough effect in the signal ratio in the repeat runs, not every such curve was filed as active; inconclusive = weak or mixed curves, or effect the other way; inactive = no such curve, though single readings can be large or run the other way; the % refers to the signal ratio; also: potency is read from the fitted curve at half-maximal effect; as to activity, negative = inhibition: % is scaled to controls: 0 for no effect and ±100 for the full control effect); settings: ER-beta-UAS-bla HEK293T, beta-lactamase FRET ratio, 16 h; activity, negative = inhibition: at 92.4 µM (top of the series) unless noted
# Sequence of UniProt Q92731 (Q92731 whole entry, looked up): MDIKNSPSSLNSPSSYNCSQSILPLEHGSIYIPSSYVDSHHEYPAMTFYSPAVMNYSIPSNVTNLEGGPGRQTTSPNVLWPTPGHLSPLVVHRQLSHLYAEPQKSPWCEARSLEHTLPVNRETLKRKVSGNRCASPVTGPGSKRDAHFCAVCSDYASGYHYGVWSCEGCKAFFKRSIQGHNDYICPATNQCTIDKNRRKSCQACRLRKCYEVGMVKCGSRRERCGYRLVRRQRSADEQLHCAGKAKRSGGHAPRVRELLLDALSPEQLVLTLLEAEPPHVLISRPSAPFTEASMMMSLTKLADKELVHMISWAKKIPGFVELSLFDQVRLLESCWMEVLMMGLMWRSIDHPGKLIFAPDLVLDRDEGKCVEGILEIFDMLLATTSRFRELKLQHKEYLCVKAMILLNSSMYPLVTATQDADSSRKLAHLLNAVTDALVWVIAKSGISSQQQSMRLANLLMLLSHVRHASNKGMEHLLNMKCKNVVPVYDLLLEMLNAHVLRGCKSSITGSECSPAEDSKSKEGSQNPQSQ
# Outline: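 ER-beta-UAS-bla HEK293T cells in 2% charcoal-stripped FBS medium treated with compound plus 1nM final 17-beta-estradiol for 16 hr at 37C. Beta-lactamase reporter read by FRET substrate fluorescence after 2 hours at room temperature.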
# [6] = target: Progesterone receptor (Homo sapiens) (UniProt P06401); experiment: qHTS assay to identify small molecule antagonists of the progesterone receptor (PR) signaling pathway (AID 1346795; active = well fitted inhibition curve with a large enough effect in the signal ratio in the repeat runs, not every such curve was filed as active; inconclusive = weak or mixed curves; the % refers to the signal ratio; also: potency is read from the fitted curve at half-maximal effect); settings: PR-UAS-bla HEK293T, beta-lactamase FRET ratio, 16 h; activity change, negative = inhibition: at 92.4 µM (top of the series) unless noted
# Sequence of UniProt P06401 (P06401 whole entry, looked up): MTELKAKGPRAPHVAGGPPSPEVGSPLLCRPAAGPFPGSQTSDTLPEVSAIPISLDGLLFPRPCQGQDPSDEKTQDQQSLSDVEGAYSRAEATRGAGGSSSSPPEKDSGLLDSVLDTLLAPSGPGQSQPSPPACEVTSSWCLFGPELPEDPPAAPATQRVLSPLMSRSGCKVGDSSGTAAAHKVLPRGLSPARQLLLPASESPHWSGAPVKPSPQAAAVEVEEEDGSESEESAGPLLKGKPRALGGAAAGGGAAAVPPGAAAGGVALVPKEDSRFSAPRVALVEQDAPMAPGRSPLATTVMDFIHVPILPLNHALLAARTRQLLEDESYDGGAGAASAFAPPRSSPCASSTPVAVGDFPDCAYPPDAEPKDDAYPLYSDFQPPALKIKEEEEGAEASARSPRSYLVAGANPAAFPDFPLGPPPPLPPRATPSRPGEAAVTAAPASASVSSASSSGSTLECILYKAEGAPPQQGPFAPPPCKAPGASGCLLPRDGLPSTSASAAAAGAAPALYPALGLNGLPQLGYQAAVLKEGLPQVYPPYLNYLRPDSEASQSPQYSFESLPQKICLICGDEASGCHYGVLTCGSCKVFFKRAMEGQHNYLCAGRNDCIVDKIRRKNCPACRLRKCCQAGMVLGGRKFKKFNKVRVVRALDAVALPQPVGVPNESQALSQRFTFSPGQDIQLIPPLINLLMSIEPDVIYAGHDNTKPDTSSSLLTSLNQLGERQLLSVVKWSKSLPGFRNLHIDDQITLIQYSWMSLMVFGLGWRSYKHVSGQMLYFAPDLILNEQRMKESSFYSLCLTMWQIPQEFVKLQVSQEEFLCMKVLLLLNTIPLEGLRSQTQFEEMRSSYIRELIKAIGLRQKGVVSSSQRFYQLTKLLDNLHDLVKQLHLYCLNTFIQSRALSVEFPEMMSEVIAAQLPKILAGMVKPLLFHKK
# Outline: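 Antagonist mode: compounds tested against 1 nM (final) promegestone stimulation in HEK293T cells expressing PR-UAS-bla reporter, 16 hr at 37C, 5% CO2; beta-lactamase activity detected via B/G FRET substrate after 2 hr at room temperature.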
# [7] = target: Cytochrome P450 2C9 (Homo sapiens) (UniProt P11712); experiment: Cytochrome P450 Family 2 Subfamily C Member 9 (CYP2C9) small molecule antagonists: luciferase reporter qHTS assay (AID 1671198); also: nearly all actives have a fitted effect of over 50% in size; also: potency is read from the fitted curve at half-maximal effect
# Sequence of UniProt P11712 (P11712 whole entry, looked up): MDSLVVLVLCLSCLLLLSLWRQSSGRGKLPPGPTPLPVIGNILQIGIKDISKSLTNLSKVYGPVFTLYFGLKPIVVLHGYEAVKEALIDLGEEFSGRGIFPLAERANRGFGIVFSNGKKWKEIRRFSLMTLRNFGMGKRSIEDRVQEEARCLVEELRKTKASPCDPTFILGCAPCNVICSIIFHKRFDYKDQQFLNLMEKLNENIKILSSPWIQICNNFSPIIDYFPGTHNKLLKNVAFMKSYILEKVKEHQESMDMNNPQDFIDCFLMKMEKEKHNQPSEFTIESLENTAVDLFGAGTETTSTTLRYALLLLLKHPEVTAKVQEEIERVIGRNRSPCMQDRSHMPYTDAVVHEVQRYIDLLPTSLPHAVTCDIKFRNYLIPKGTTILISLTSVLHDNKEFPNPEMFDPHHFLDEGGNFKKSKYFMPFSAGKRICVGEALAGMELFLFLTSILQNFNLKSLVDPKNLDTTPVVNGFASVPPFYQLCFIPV
# Outline: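 P450-Glo proluciferin substrate with CYP2C9 enzyme; 10 min RT preincubation, then NADPH regeneration 1 h at 37C; luciferin detection reagent 20 min RT, luminescence in relative luminescence units.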
# [8] = target: Cytochrome P450 1A2 (Homo sapiens) (UniProt P05177); experiment: Cytochrome P450 Family 1 Subfamily A Member 2 (CYP1A2) small molecule antagonists: luciferase reporter qHTS assay (AID 1671199); also: nearly all actives have a fitted effect of over 50% in size; also: potency is read from the fitted curve at half-maximal effect
# Sequence of UniProt P05177 (P05177 whole entry, looked up): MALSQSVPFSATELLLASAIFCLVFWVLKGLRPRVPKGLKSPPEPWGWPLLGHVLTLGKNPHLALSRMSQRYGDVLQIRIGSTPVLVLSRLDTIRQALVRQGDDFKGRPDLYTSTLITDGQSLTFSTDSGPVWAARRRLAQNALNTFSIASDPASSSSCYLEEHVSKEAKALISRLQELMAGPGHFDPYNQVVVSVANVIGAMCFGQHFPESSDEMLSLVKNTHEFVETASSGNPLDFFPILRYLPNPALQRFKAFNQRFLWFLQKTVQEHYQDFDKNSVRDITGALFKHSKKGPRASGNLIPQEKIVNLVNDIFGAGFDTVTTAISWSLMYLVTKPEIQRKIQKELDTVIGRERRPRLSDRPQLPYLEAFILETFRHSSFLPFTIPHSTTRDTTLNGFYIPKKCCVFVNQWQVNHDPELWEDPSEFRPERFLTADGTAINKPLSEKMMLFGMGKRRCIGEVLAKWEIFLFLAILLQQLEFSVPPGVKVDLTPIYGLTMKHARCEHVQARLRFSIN
# Outline: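 Human CYP1A2 activity measured with a P450-Glo proluciferin substrate; compounds in DMSO preincubated 10 min at room temperature with enzyme-substrate mix, then NADPH regeneration system added for 1 h. Luciferin detection reagent, 20 min, luminescence read.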
# [9] = qHTS assay to identify small molecule antagonists of the thyroid receptor (TR) signaling pathway - cell viability counter screen (AID 743064); settings: GH3.TRE-Luc viability, CellTiter-Fluor, 24 h; activity change, negative = cytotoxic: at 70.3 µM (top of the series) unless noted; also: nearly all actives have a fitted effect of over 50% in size; also: potency is read from the fitted curve at half-maximal effect
# Outline: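 Rat GH3 pituitary tumor cells stably expressing two TR response elements driving luciferase were plated, rested 4 h, then dosed with library compounds and T3 (1 nM final). After 23.5 h at 37 °C, CellTiter-Fluor was added for 30 min and fluorescence recorded.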
# [10] = qHTS assay to identify small molecule antagonists of the estrogen receptor alpha (ER-alpha) signaling pathway - cell viability counter screen (AID 743074; calls by dose curve;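 also: HEK293 cells carrying ER-alpha-UAS-bla reporter stimulated with 17beta-estradiol; nearly all actives have a fitted effect of over 45% in size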; also: potency is read from the fitted curve at half-maximal effect)
# [11] = target: Cytochrome P450 2D6 (Homo sapiens) (UniProt P10635); experiment: Cytochrome P450 Family 2 Subfamily D Member 6 (CYP2D6) small molecule antagonists: luciferase reporter qHTS assay (AID 1671196); also: nearly all actives have a fitted effect of over 50% in size; also: potency is read from the fitted curve at half-maximal effect
# Sequence of UniProt P10635 (P10635 whole entry, looked up): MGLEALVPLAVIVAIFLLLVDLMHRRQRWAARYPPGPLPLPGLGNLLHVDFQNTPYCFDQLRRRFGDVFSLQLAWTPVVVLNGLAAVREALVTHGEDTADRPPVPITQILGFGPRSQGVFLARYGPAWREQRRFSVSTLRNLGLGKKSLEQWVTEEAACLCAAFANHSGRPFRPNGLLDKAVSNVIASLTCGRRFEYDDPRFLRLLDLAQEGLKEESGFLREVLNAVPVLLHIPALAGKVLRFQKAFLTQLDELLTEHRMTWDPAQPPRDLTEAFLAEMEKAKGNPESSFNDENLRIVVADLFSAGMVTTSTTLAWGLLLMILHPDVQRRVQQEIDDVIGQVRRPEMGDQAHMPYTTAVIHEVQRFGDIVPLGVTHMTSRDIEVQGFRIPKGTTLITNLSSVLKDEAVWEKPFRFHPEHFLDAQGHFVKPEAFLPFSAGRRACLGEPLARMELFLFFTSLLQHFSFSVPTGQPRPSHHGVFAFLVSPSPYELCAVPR
# Outline: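 CYP2D6 enzyme–substrate mix was held with compound for 10 min at room temperature, then NADPH regeneration solution was added and the reaction ran 1 h at room temperature. Luciferin product was detected by luminescence after 20 min with detection reagent.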
# [12] = target: Cytochrome P450 2C19 (Homo sapiens) (UniProt P33261); experiment: Cytochrome P450 Family 2 Subfamily C Member 19 (CYP2C19) small molecule antagonists: luciferase reporter qHTS assay (AID 1671197); also: nearly all actives have a fitted effect of over 65% in size; also: potency is read from the fitted curve at half-maximal effect
# Sequence of UniProt P33261 (P33261 whole entry, looked up): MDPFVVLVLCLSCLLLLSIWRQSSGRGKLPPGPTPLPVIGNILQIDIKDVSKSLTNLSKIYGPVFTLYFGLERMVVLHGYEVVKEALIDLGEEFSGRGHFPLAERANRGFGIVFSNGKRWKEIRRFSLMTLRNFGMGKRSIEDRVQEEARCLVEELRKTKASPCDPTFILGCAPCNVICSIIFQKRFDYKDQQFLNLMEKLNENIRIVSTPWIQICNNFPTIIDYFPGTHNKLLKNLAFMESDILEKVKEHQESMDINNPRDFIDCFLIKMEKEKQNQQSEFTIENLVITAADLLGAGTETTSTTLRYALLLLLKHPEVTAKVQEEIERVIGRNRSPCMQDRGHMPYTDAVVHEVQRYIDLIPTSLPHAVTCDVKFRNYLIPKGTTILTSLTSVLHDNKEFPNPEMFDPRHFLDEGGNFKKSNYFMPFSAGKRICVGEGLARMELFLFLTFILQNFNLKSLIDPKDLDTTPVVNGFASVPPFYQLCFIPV
# Outline: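 Relative luminescence units recorded 20 min after the detection reagent stopped a 1 h, 37C CYP2C19 reaction on proluciferin substrate, which was started by NADPH regeneration following 10 min room-temperature compound preincubation; ketoconazole positive control.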
# [13] = qHTS assay for small molecule disruptors of the mitochondrial membrane potential (AID 720635); settings: HepG2 mitochondrial membrane potential, Mito-MPS dye ratio; ratio activity, negative = MMP loss: at 83.2 µM (top of the series) unless noted; also: potency is read from the fitted curve at half-maximal effect
# Outline: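 HepG2 cells exposed to compound 1 hr at 37C, then Mito-MPS dye 30 min. Ratio read of aggregate (540/590 nm) versus monomer (490/535 nm) fluorescence.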
# [14] = qHTS assay for identifying genotoxic compounds that show differential cytotoxicity against isogenic chicken DT40 cell lines with known DNA damage response pathways - wild type cell line (AID 743012); settings: DT40 wild type chicken cells viability, CellTiter-Glo, 40 h; activity change, negative = cytotoxicity: at 68.4 µM (top of the series) unless noted; also: % is scaled to controls: 0 for no effect and ±100 for the full control effect; nearly all actives have a fitted effect of over 60% in size
# Outline: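 Parental DNA repair-proficient DT40 cells, 300 per well, were pre-incubated ~0.5 h at 37 C/5% CO2, pin-dosed with compounds in DMSO, then incubated 40 h. Viability was read as CellTiter-Glo luminescence after 30 min at room temperature.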
# [15] = qHTS assay for identifying genotoxic compounds that show differential cytotoxicity against isogenic chicken DT40 cell lines with known DNA damage response pathways - Rev3 mutant cell line (AID 743014); settings: chicken DT40 Rev3-/- viability, CellTiter-Glo, 40 h; activity, negative = cytotoxicity: at 68.4 µM (top of the series); also: potency is read from the fitted curve at half-maximal effect; nearly all actives have a fitted effect of over 55% in size
# [16] = target: Peroxisome proliferator-activated receptor gamma (Homo sapiens) (UniProt P37231); experiment: qHTS assay to identify small molecule antagonists of the peroxisome proliferator-activated receptor gamma (PPARg) signaling pathway (AID 743191; calls by dose curve; also: % is scaled to controls: 0 for no effect and ±100 for the full control effect; nearly all actives have a fitted effect of over 30% in size); settings: HEK293H PPARg-UAS-bla, beta-lactamase ratio, antagonist, 17 h; ratio activity, negative = inhibition: at 62.6 µM (top of the series) unless noted
# Sequence of UniProt P37231 (P37231 whole entry, looked up): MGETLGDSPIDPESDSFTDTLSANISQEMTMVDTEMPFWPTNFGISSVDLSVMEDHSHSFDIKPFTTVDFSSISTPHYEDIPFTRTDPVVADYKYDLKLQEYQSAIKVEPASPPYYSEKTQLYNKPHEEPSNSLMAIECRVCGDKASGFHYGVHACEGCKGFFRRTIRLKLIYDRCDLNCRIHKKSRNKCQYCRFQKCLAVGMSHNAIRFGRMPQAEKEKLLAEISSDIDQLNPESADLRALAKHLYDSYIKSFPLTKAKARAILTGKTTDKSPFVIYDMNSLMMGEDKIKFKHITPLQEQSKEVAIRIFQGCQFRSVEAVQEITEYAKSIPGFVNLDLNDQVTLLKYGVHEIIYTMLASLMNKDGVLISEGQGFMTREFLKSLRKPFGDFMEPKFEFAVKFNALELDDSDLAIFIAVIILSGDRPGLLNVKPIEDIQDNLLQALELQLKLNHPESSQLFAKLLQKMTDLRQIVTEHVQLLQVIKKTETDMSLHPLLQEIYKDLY
# Outline: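 GeneBLAzer PPARg UAS-bla HEK293H cells, 5 h post-plating, exposed to compounds 17 h at 37C. LiveBLAzer B/G FRET substrate added for 1 h at room temperature; beta-lactamase reporter read by fluorescence intensity.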
# [17] = Caspase-3/7 induction in CHO-K1 cells by small molecules, qHTS cell viability counter screen (AID 1346979); also: potency is read from the fitted curve at half-maximal effect; nearly all actives have a fitted effect of over 35% in size
# Outline: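 Cytotoxicity counter screen run in parallel with the caspase-3/7 assay: CHO-K1 cells, 16hr compound treatment at 37C, then CellTiter-Fluor for 1hr before fluorescence reading.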
# [18] = qHTS assay to identify small molecule antagonists of the peroxisome proliferator-activated receptor delta (PPARd) signaling pathway - cell viability counter screen (AID 743213); settings: PPARd-bla HEK293H viability, CellTiter-Glo luminescence, 17 h; viability change, negative = cytotoxic: at 62 µM (top of the series) unless noted
# Outline: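 HEK293H cells with the PPARd UAS-bla reporter, co-treated 17 h at 37 C with compounds and L165041 (300 nM final), were lysed with CellTiter-Glo. Luminescence indicated viable cell content.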
# [19] = target: Vitamin D3 receptor (Homo sapiens) (UniProt P11473); experiment: qHTS assay to identify small molecule antagonists of the vitamin D receptor (VDR) signaling pathway (AID 743223; active = well fitted inhibition curve with a large enough effect in the signal ratio in the repeat runs, not every such curve was filed as active; inconclusive = weak or mixed curves, or effect the other way; inactive = no such curve, though single readings can be large or run the other way; the % refers to the signal ratio; also: potency is read from the fitted curve at half-maximal effect); settings: VDR-UAS-bla HEK293T, beta-lactamase FRET ratio, 16 h; activity change, negative = inhibition: at 61 µM (top of the series) unless noted
# Outline: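 Cells carrying a VDR-driven beta-lactamase reporter (VDR-bla) were co-treated with compound and 3 nM final 1alpha,25-dihydroxyvitamin D3 for 16 h at 37C; reporter activity was measured as FRET substrate fluorescence after 2 h at room temperature.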
# [20] = target: Estrogen receptor (Homo sapiens) (UniProt P03372); experiment: qHTS assay to identify small molecule agonists of the estrogen receptor alpha (ER-alpha) signaling pathway using the BG1 cell line (AID 743079); settings: BG1Luc4E2 cells, ERE-luciferase agonist, 22 h; activation: at 70.3 µM (top of the series) unless noted; also: nearly all actives have a fitted effect of over 20% in size; also: potency is read from the fitted curve at half-maximal effect
# Tags tell the direction and shape of the fitted curve or compound fluorescence and quenching.
structure (smiles),measurement,setting,value
[As]#[In],Potency,[1],inactive
same,activation,[2],inconclusive: 10.1%
same,Potency,[3],"inconclusive: 21.9 µM [activator, partial curve]"
same,activation,[4],inconclusive: -1.16% [phenotype inactive]
same,Potency,[5],inactive
same,Potency,[6],inactive
same,Potency,[7],"inconclusive: 89.4 µM [inhibitor, single point]"
same,Potency,[8],inactive
COc1cc(OC)nc(Sc2cccc(Cl)c2C(=O)O)n1,Potency,[9],inactive
same,Potency,[10],inactive
same,Potency,[3],inactive
same,Potency,[11],"inconclusive: 44.8 µM [inhibitor, partial curve]"
same,Potency,[12],inactive
same,Potency,[7],"inconclusive: 44.8 µM [inhibitor, partial curve, poor fit]"
same,Potency,[8],inactive
CCOS(C)(=O)=O,"ratio activity, negative = MMP loss",[13],inconclusive: 7.26% [at 95.3 µM]
same,Potency,[14],inactive
same,Potency,[15],inconclusive: 62.3 µM [cytotoxic]
same,Potency,[3],"inconclusive: 22.3 µM [activator, single point]"
same,Potency,[4],inactive
same,Potency,[11],"inconclusive: 40.7 µM [inhibitor, partial curve]"
COc1ccc2c(c1OC)CN1CCc3cc4c(cc3C1C2)OCO4 (stereo not drawn),Potency,[13],"inconclusive: 9.02 µM [inhibitor, partial curve]"
same,Potency,[15],inconclusive: 12.7 µM [cytotoxic]
same,Potency,[10],inactive
same,Potency,[16],inactive
same,activation,[2],inconclusive: 6.91%
same,activation,[3],inconclusive: -24% [at 35.3 µM]
same,"activity, negative = inhibition",[5],inconclusive: -39.7% [at 42.5 µM]
same,Potency,[6],"inconclusive: 18.8 µM [rising, partial curve, poor fit]"
same,Potency,[17],"inconclusive: 33.5 µM [cytotoxic, single point]"
same,Potency,[8],active: 15.5 µM
Fc1ccc(C2(Cn3cncn3)OC2c2ccccc2Cl)cc1 (stereo not drawn),Potency,[13],"inconclusive: 13.7 µM [activator, full curve, poor fit]"
same,"activity change, negative = inhibition",[1],inconclusive: -35.5%
same,"ratio activity, negative = inhibition",[16],inconclusive: -21.5%
same,Potency,[18],inactive
same,Potency,[19],"inconclusive: 0.195 µM [inhibitor, single point]"
same,activation,[3],inconclusive: -28.5%
same,Potency,[5],active: 30.6 µM
same,Potency,[6],"inconclusive: 34.4 µM [rising, partial curve, poor fit]"
same,Potency,[17],inconclusive: 68.6 µM [cytotoxic]
Nc1cccc(Cl)c1,Potency,[13],inactive
same,Potency,[9],"inconclusive: 69.4 µM [rising, partial curve]"
same,Potency,[16],inactive
same,activation,[2],inconclusive: 0.47%
same,Potency,[18],inactive
same,"activity change, negative = inhibition",[19],inconclusive: 18% [at 78.8 µM]
same,Potency,[3],inactive
same,Potency,[11],"inconclusive: 64 µM [inhibitor, partial curve]"
same,Potency,[7],active: 71.8 µM
Cc1nc2ccccc2c(=O)n1-c1ccccc1Cl,Potency,[13],"inconclusive: 18.9 µM [rising, full curve]"
same,Potency,[10],"inconclusive: 1.35 µM [rising, partial curve, poor fit]"
same,Potency,[20],active: 33.6 µM
same,Potency,[2],"inconclusive: 47.5 µM [rising, partial curve]"
same,Potency,[3],"inconclusive: 3.81 µM [inhibitor, partial curve, poor fit]"
same,Potency,[5],inactive
same,"activity change, negative = inhibition",[6],inconclusive: -41.8%
same,Potency,[11],"inconclusive: 78 µM [inhibitor, partial curve]"
CN(C)NC(=O)CCC(=O)O,Potency,[9],"inconclusive: 6.86 µM [rising, partial curve, poor fit]"
same,Potency,[16],inactive
same,Potency,[2],inactive
same,Potency,[18],inactive
same,Potency,[3],inactive
same,Potency,[4],inactive
same,Potency,[5],inactive
same,Potency,[11],inactive
same,Potency,[12],inactive
same,Potency,[7],"inconclusive: 81 µM [inhibitor, single point]"
ClCc1cccnc1,Potency,[13],inactive
same,"activity change, negative = inhibition",[1],inconclusive: 8.33%
same,activation,[20],inconclusive: 4.22% [phenotype inactive]
same,Potency,[16],inactive
same,Potency,[18],inactive
same,Potency,[3],"inconclusive: 48.1 µM [activator, partial curve, poor fit] and inactive"
same,Potency,[11],"inconclusive: 62.2 µM [inhibitor, partial curve]"
same,Potency,[12],active: 69.8 µM and inactive
same,Potency,[7],inactive
C=C(C)[C@@H]1CC=C(C=O)CC1,Potency,[15],active: 61.1 µM
same,Potency,[10],inactive
same,Potency,[2],inconclusive: 61.1 µM
same,"activity change, negative = inhibition",[19],inconclusive: 14.8%
same,Potency,[3],"inconclusive: 54.9 µM [rising, single point]"
same,activation,[4],inconclusive: 6.87% [phenotype inactive]
same,Potency,[17],"inconclusive: 68.6 µM [cytotoxic, single point]"
NC(=O)CN1CCCC1=O,"ratio activity, negative = MMP loss",[13],inconclusive: 2.06%
same,Potency,[14],inactive
same,Potency,[3],inactive
same,activation,[4],inconclusive: 1.3% [phenotype inactive] and inconclusive: 0.259% [phenotype inactive]
same,Potency,[11],"inconclusive: 39.9 µM [inhibitor, partial curve, poor fit]"
